Reference: the supplement of paper PMC3694890
± gives the uncertainty stated by the source. This is one part of the list. Phosphotyrosine is written y.

Target: GRB2 (endogenous complexes from cell lysate), P62993
Experiment: GRB2 complex binding differential signal (pY peptide minus Ala control peptide) (fluorescence intensity units); higher = stronger GRB2 complex binding
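Note: phosphopeptide probes on the chip at 1–4 µM, lysate proteins bound in 20 mM Tris pH 7.0 buffer with 140 mM NaCl, 1% Triton X-100 and 5% glycerol.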

Binder | GRB2 complex binding differential signal (MCF7) | GRB2 complex binding differential signal (MCF10A) | GRB2 complex binding differential signal (MDA-MB-231) | GRB2 complex binding differential signal (T47D)
yIRPSL [NCK1_268/A1] | 11500 ± 3500 | 4080 ± 710 | 1500 ± 430 | 3170 ± 1400
yYKANE [MUSK_755/A1] | 935 ± 750 | 1150 ± 320 | 741 ± 380 | 690 ± 990
yKANEN [MUSK_756/A1] | 1730 ± 660 | 3910 ± 1600 | 1070 ± 410 | 243 ± 2100
yFDLIY [MET_830/A1] | 1.48 ± 310 |  | 234 ± 370 | 79.3 ± 1500
ySGDYY [MERTK_749/A1] | 150 ± 140 | 152 ± 220 | 622 ± 310 | 1440 ± 1700
yPSLLS [MET_1365/A1] | -240 ± 420 | 23.8 ± 260 | 270 ± 290 | 477 ± 1400
yKFGHT [MYH3_757/A1] | 99.1 ± 280 | 169 ± 160 | 230 ± 330 | 27.8 ± 1200
ySADYY [MUSK_751/A1] | 105 ± 180 | 101 ± 180 | 862 ± 360 | 2390 ± 1200
yQRMPL [MUSK_554/A1] | 8660 ± 2600 | 1710 ± 430 | 310 ± 320 | 978 ± 1400
yGSWFG [ALK_1507/A1] | 72 ± 240 | 46 ± 170 | 236 ± 510 | 278 ± 900
yVRDIG [MUSK_577/A1] | 2020 ± 620 | 1090 ± 570 | 315 ± 260 | 753 ± 1100
yDLNIP [NCK2_110/A1] | 921 ± 540 | 678 ± 320 | 477 ± 440 | 536 ± 1000
yAIMRG [NTRK1_757/A1] | 1980 ± 600 | 1230 ± 250 | 293 ± 270 | 994 ± 2400
yVHVNA [MET_1349/A1] | 1740 ± 510 | 1650 ± 380 | 708 ± 380 | 873 ± 1200
yRATFP [MET_1003/A1] | 4040 ± 2400 | 1690 ± 550 | 974 ± 540 | 4410 ± 1700
ySVHNK [MET_1235/A1] | 1230 ± 390 | 1190 ± 250 | 734 ± 330 | 1090 ± 1000
ySTDYY [NTRK1_676/A1] | 44.5 ± 150 | 320 ± 390 | 662 ± 340 | 805 ± 1200

Binder | GRB2 complex binding differential signal (MCF7) | GRB2 complex binding differential signal (MCF10A) | GRB2 complex binding differential signal (MDA-MB-231) | GRB2 complex binding differential signal (T47D)
yFSDAC [NTRK1_496/A1] | 437 ± 1200 | 190 ± 180 | 401 ± 260 | 80.5 ± 870
yYVRDG [MUSK_813/A1] | 397 ± 740 | 350 ± 270 | 362 ± 250 | 389 ± 950
yLVVNP [MCM6_810/A1] | 319 ± 540 | 413 ± 300 | 852 ± 330 | 989 ± 1200
yGYQQQ [ALK_1584/A1] | 421 ± 270 | -1170 ± 750 | 320 ± 530 | 220 ± 920
yILNGG [MERTK_929/A1] | 771 ± 250 | 693 ± 240 | 768 ± 280 | 2230 ± 1100
yYRVGG [NTRK1_680/A1] | 3350 ± 600 | 1020 ± 270 | 301 ± 280 | 375 ± 1200
yEVMLK [MET_1313/A1] | 1070 ± 420 | 539 ± 240 | 640 ± 300 | 1150 ± 1400
yNEDIN [MCM6_699/A1] | -305 ± 440 | 286 ± 230 | 261 ± 310 | 729 ± 1300
yLDVLG [NTRK1_791/A1] | 181 ± 300 | 176 ± 140 | 354 ± 280 | 99.2 ± 920
yDLNMP [NCK1_105/A1] | 771 ± 230 | 274 ± 260 | 783 ± 360 | 1660 ± 1200
yVNVKC [MET_1356/A1] | 38000 ± 10000 | 23000 ± 4200 | 4180 ± 840 | 14200 ± 1900
yKLEK [MYH11_1415 /A1] | 1400 ± 370 | 1350 ± 390 | 1260 ± 370 | 1960 ± 890
yRIMTQ [ALK_1359/A1] | 3180 ± 610 | 1700 ± 540 | 595 ± 420 | 1160 ± 1000
yRVGGR [NTRK1_681/A1] | 1410 ± 360 | 669 ± 210 | 150 ± 270 | 
yYSVHN [MET_1234/A1] | 1060 ± 400 | 1140 ± 240 | 372 ± 270 | 952 ± 1000
yDKEYY [MET_1230/A1] | -50.4 ± 350 | -70 ± 490 | 235 ± 220 | 44.7 ± 950
